Results from publication PMC4242493.
The list shows a part of the results. The list includes weakly bound sequences.

Target: MaxL homodimer (UniProt P61244)
Assay: universal protein-binding microarray (PBM)
Conditions: PBS-based mixture, 10 nM His-tagged protein dimer, 2% milk, 200 ng/uL BSA, 50 ng/uL salmon testes DNA, 0.02% TX-100; detection with Alexa 488 anti-His …; high values mean tight binding; most listed sequences are background and not binding sites; double strand, one strand shown

UniProt P61244, sequence (P61244 whole entry): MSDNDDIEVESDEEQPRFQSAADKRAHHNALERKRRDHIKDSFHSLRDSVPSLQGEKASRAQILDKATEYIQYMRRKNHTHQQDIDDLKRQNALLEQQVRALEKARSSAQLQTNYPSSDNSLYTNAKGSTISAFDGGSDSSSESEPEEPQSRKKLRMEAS

Row | Sequence | binding signal (normalized occupancy)
1 | GCTAATTA | 0.071
2 | AGTCTGAC | 0.0742
3 | ATTATGGC | 0.0813
4 | GATGAAAA | 0.0785
5 | ATTTGGTC | 0.0743
6 | CGTTGTCC | 0.0724
7 | CCGGTTAA | 0.0702
8 | AGAACGAA | 0.0747
9 | ATGAACTG | 0.0732
10 | AGACCAGA | 0.0742
11 | CCGTGGAA | 0.0755
12 | ATGTAAAT | 0.0834
13 | AACAGGAC | 0.0697
14 | CGAAAGAC | 0.0659
15 | CCCGGTCG | 0.068
16 | TATAGATA | 0.0879
17 | CGTTTGAA | 0.0775
18 | GCAAGGTA | 0.0757
19 | ACGCCATA | 0.0812
20 | CATTATAA | 0.0866
21 | CCGGGACG | 0.0665
22 | CCACTGAA | 0.0673
23 | AGCGGTCC | 0.0692
24 | AGCGCTTC | 0.0703
25 | ATAAACTG | 0.0733

Row | Sequence | binding signal (normalized occupancy)
26 | CAGCTAAC | 0.0725
27 | AATCTAAA | 0.0727
28 | GAATAGGC | 0.0787
29 | CTCAGCCC | 0.0722
30 | ATAATCCC | 0.0883
31 | GCGCTAGC | 0.0713
32 | ACGCCGTC | 0.0796
33 | CGGCTCAC | 0.0784
34 | ACAGTGAC | 0.0748
35 | CTAGCGGA | 0.0649
36 | AAGCGTGT | 0.0967
37 | GCCTGAGA | 0.0663
38 | CAACGAAA | 0.0741
39 | AATGGGAG | 0.073
40 | AATATCAC | 0.0848
41 | GAGCATCC | 0.0705
42 | AGAAACCT | 0.0763
43 | ATTACAAT | 0.0775
44 | CTTTACCC | 0.0758
45 | CGATGAAA | 0.075
46 | CTAGATAA | 0.0743
47 | CAACTCCG | 0.0688
48 | GTAGTCGA | 0.0806
49 | CATAAAGG | 0.0773
50 | ACGGTGTA | 0.0823

Row | Sequence | binding signal (normalized occupancy)
51 | TCTGCAAA | 0.0737
52 | CGCGACCG | 0.0697
53 | ACCAGCGA | 0.0737
54 | ACATCGAC | 0.0736
55 | AGTAGCGC | 0.0686
56 | TATCCCAA | 0.0793
57 | CCGTTCGC | 0.0677
58 | CCCCTACG | 0.0763
59 | GTACCTCA | 0.0765
60 | AATGCAAG | 0.0719
61 | ATTGTTCA | 0.0778
62 | CTCGTGAA | 0.0894
63 | CCACATCG | 0.0796
64 | ACTCTACT | 0.0793
65 | ATAGCGGA | 0.0718
66 | ATGTCAGG | 0.0795
67 | AGAGAAAC | 0.074
68 | ACCTTTAG | 0.0744
69 | GAAAAAAA | 0.0757
70 | GCTTGCAA | 0.0687
71 | AGTCGCGC | 0.0678
72 | CTCCAGAG | 0.069
73 | AGACATCT | 0.0743
74 | AACCGATG | 0.0705
75 | GATATAAA | 0.0756

Row | Sequence | binding signal (normalized occupancy)
76 | CACCAAGC | 0.0721
77 | GAAGATTC | 0.072
78 | GAATGGAC | 0.0779
79 | TTACCCAA | 0.0803
80 | AGACCGAC | 0.0743
81 | CAGTACGA | 0.0688
82 | ACCAACAC | 0.083
83 | TCATTGCA | 0.0829
84 | CAATTGGC | 0.0716
85 | AGGTGTAG | 0.0785
86 | ACTGCGAG | 0.0737
87 | ATACATTA | 0.0827
88 | ATTACGTG | 0.0901
89 | ACTTCAGC | 0.0691
90 | CAGCCCCG | 0.0702
91 | CGGTGCAA | 0.0717
92 | AGTGGGGG | 0.0842
93 | TCTGCGCA | 0.0723
94 | TACATCGA | 0.0798
95 | GAGCCAGA | 0.0683
96 | CAACTCTA | 0.0757
97 | TACCCACA | 0.0805
98 | CCGACGAC | 0.0752
99 | AACTTGGC | 0.0731
100 | CGGTTATC | 0.0735

Row | Sequence | binding signal (normalized occupancy)
101 | AGTATCAG | 0.0783
102 | GGGTTACC | 0.0729
103 | AGAATACC | 0.0764
104 | GATTCGGA | 0.0782
105 | AATACCTA | 0.077
106 | AGCTTTCC | 0.0691
107 | GAACGCTC | 0.0703
108 | AGCCCAAC | 0.0747
109 | AAGATCCT | 0.0763
110 | AAGCCAAG | 0.0715
111 | CATGCGGG | 0.121
112 | CCTGACCA | 0.0788
113 | ATGCGACA | 0.0887
114 | AATTGTGC | 0.0772
115 | GATGCGCA | 0.0748
116 | ATTAATAG | 0.0805
117 | AACCAGAT | 0.0788
118 | ATGTTTCG | 0.0823
119 | ATTCGTGG | 0.074
120 | CACAACTA | 0.0799
121 | GATGAATC | 0.0799
122 | AGAATCTC | 0.0755
123 | ACGAAAGA | 0.0677
124 | CTAGGATA | 0.0759
125 | ATGAGAAT | 0.0796

Row | Sequence | binding signal (normalized occupancy)
126 | ACGGGGTA | 0.0812
127 | AACAAGAT | 0.0772
128 | ACAATATA | 0.078
129 | ACTATACA | 0.0849
130 | AAACTATA | 0.0788
131 | GCAGGGGC | 0.0693
132 | CAGTCAAC | 0.0749
133 | CACAGCCA | 0.0748
134 | AGAGGGGC | 0.0664
135 | ACACGCAA | 0.087
136 | ACTAATAG | 0.0803
137 | GCTCCAAC | 0.0723
138 | AAGGCAAA | 0.0722
139 | CTCCCCAC | 0.083
140 | CATATTCC | 0.0822
141 | AACCACAT | 0.0973
142 | CCCGCTCC | 0.0699
143 | CCAGGAGG | 0.0769
144 | TGGTAACA | 0.079
145 | AAATAGAT | 0.0798
146 | AGATCGAA | 0.0726
147 | CCGAAGAA | 0.0707
148 | ACGAGCGG | 0.077
149 | AAGTTACA | 0.0777
150 | AAAGACTG | 0.0736

Row | Sequence | binding signal (normalized occupancy)
151 | CGCCTGAG | 0.0661
152 | ACAGGGGG | 0.083
153 | ACACACGA | 0.0911
154 | GCGCGCTA | 0.0788
155 | ATTGGTGG | 0.0738
156 | ATGCGCCC | 0.077
157 | CGGAAGAG | 0.0699
158 | AGTGGTAA | 0.0751
159 | GGATAGTA | 0.0777
160 | GTCGGCCA | 0.0706
161 | GCCTTGAC | 0.0714
162 | GAGGAAGC | 0.0694
163 | ATTTGTTG | 0.0766
164 | CAGTCAGG | 0.0732
165 | CAAACCCG | 0.0714
166 | AAACGGCG | 0.0688
167 | AAACGATT | 0.0732
168 | ATATCCGC | 0.0783
169 | CATTAGTA | 0.0793
170 | GAAACAAC | 0.0771
171 | CCTAAGCC | 0.0716
172 | AAACAGTT | 0.0706
